The results in this text go back to PubChem BioAssay (EPA / NIEHS).

A short description of test [1]: ATG_PPRE_CIS: Attagene CIS-FACTORIAL HepG2 Assay for human Peroxisome Proliferator-activated Response Element (PPRE) (AID 2282958; active means hit-call score of the fitted dose curve at least 0.9, where 1 is the maximum; inactive means score below 0.9). Particulars: HepG2 PPRE cis-element reporter, Attagene transcription factor profiling; actives raise or lower the signal. The method in brief:
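Read-out: fluorescent reporter mRNA fragments resolved by capillary electrophoresis after RT-PCR. HepG2 cells carried transiently transfected PPRE-driven cis reporter constructs and were dosed for 24 h; gain or loss of signal fitted relative to DMSO.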

The target in test [2] is human Retinoid X Receptor beta (RXRb), RXRB (gene 6257) (UniProt P28702). Description: ATG_RXRb_TRANS: Attagene TRANS-FACTORIAL HepG2 Assay for human Retinoid X Receptor beta (RXRb) (AID 2283013). The method in brief: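 Multiplexed TRANS reporter assay in HepG2; 24 h dosing; reporter mRNA by RT-PCR/CE fluorescence; gain-of-signal relative to DMSO.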
UniProt P28702, sequence (P28702 whole entry, looked up, the tested form may be a part): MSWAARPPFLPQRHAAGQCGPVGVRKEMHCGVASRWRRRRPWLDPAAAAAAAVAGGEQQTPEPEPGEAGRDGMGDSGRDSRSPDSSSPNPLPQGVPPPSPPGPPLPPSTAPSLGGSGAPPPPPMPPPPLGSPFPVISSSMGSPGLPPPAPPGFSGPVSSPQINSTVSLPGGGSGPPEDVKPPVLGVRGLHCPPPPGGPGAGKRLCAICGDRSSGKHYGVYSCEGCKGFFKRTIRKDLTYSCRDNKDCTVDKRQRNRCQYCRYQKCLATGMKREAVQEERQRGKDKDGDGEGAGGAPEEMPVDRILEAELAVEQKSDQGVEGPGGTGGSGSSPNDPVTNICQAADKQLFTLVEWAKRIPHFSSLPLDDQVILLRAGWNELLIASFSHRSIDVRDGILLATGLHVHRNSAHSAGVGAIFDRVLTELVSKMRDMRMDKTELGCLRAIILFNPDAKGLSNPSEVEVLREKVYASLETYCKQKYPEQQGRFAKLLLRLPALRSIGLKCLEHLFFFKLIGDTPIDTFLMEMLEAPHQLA
Test [3] deals with Nuclear receptor subfamily 1 group I member 2 (Homo sapiens) (UniProt O75469). Briefly: ATG_PXR_TRANS: Attagene TRANS-FACTORIAL HepG2 Assay for human Pregnane X Receptor (PXR) (AID 2283008). The method in brief: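 HepG2 cells transiently transfected with GAL4-UAS reporter units and PXR-Gal4 chimera, exposed 24 h. Reporter mRNA quantified by RT-PCR, fluorescent labelling, HpaI digestion and capillary electrophoresis; gain of signal vs DMSO.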
UniProt O75469, sequence (O75469 whole entry, looked up, the tested form may be a part): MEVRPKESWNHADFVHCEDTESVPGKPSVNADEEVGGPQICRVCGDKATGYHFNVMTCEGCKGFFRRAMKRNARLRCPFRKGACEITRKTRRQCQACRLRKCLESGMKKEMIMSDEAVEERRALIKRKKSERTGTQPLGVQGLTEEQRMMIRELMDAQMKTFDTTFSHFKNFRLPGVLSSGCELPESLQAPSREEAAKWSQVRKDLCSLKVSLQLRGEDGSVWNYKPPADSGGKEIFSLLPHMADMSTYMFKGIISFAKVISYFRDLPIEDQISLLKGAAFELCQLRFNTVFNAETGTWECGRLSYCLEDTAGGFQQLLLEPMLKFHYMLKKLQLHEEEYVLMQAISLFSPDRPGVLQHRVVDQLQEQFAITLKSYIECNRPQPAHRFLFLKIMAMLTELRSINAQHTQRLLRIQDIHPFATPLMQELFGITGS

Test [4] has as its target bovine Estrogen Receptor (ER), ESR1 (gene 407238) (UniProt P49884). Briefly: NVS_NR_bER: NovaScreen (NVS) Nuclear Receptor Binding Assay for bovine Estrogen Receptor (ER) (AID 2283345).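 Further: actives lower the bound radioligand count which means they displace the ER ligand.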 The gist of the method: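 Cell-free radioligand binding with bovine uterine membrane extracts, read 18 hours after dosing by scintillation counting. Loss of signal versus DMSO baseline indicates displacement. Primary screen run in duplicate at 25 uM, actives followed in concentration series.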
UniProt P49884, sequence (P49884 whole entry, looked up): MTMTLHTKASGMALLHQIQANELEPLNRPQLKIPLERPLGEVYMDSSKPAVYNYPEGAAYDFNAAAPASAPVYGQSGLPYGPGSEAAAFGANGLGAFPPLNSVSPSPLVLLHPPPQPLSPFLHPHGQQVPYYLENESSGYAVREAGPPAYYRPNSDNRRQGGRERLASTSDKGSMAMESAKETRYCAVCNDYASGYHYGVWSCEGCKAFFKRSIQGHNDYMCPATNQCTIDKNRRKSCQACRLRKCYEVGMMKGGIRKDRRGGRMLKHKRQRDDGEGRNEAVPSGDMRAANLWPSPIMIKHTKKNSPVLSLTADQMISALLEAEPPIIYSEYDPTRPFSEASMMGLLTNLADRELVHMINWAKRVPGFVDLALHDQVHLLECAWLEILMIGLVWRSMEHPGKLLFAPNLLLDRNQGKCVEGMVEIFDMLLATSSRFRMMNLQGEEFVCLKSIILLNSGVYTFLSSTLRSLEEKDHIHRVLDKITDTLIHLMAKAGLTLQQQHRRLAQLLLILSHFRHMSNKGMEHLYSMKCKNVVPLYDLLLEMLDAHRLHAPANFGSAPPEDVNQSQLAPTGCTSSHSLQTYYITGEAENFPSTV

A short description of test [5]: ATG_NRF2_ARE_CIS: Attagene CIS-FACTORIAL HepG2 Assay for human Nuclear Factor Erythroid 2 Related Factor 2 (NFR2) response to Antioxidant Response Elements (ARE) (AID 2282992; active means hit-call score of the fitted dose curve at least 0.9, where 1 is the maximum; inactive means score below 0.9;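 further: reporter mRNA level measured by RT-PCR and capillary electrophoresis fluorescence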). Particulars: HepG2 Attagene ARE/NRF2 reporter, transcription factor activity; actives raise or lower the signal. The method in brief:
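HepG2 cells transiently transfected with multiplexed cis-element reporter constructs, 24 h after chemical dosing; reporter mRNA quantified by RT-PCR, fluorescent primer extension, HpaI digestion and capillary electrophoresis. Bidirectional fit relative to DMSO.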

Test [6] has as its target Retinoic acid receptor RXR-alpha (Homo sapiens) (UniProt P19793). Briefly: OT_NURR1_NURR1RXRa_1440: Odyssey Thera (OT) 24-hour HEK293T Protein Complementation Assay for Nurr1/retinoid X receptor (RXR) (AID 2283386). Here is the method:
OT_NURR1_NURR1RXRa_1440 is a cell-based assay that uses HEK293T, a human kidney cell line, with measurements taken at 24 hours after chemical dosing in a 384-well plate.OT_NURR1_NURR1RXRa_1440 is one of one assay component(s) measured or calculated from the OT_NURR1_NURR1RXRa_1440 assay. It is designed to make measurements of protein fragment complementation, a form of binding reporter, as detected with fluorescence intensity signals by Protein-fragment Complementation technology.Data from the assay component OT_NURR1_NURR1RXRa_1440 was analyzed into 1 assay endpoint. This assay endpoint, OT_NURR1_NURR1RXRa_1440, was analyzed in the positive analysis fitting direction relative to DMSO as the negative control and baseline of activity. Using a type of binding reporter, measures of receptor for gain-of-signal activity can be used to understand the binding at the pathway-level as they relate to the gene RXRA. Furthermore, this assay endpoint can be referred to as a primary readout, because the performed assay has only produced 1 assay endpoint. […]
Protein-fragment complementation assay, or PCA, is a method for the identification and quantification of protein-protein interactions. […] Interaction between the bait and the prey proteins brings the fragments of the reporter protein in close proximity to allow them to form a functional reporter protein whose activity can be measured.

Not every entry of the source has a single result; some have several. The list is limited to them. The source may hold further records. Results that share an entry repeat one measurement across runs, samples, wells, individuals or studies. Inconclusive results are not listed. How the source made its calls, unless noted: active means hit-call score of the fitted dose curve at least 0.9, where 1 is the maximum; inconclusive means response in the unintended direction; inactive means score below 0.9. Where a structure was tested more than once in an assay, its records may differ in their call.

UniProt P19793, sequence (P19793 whole entry, looked up, the tested form may be a part): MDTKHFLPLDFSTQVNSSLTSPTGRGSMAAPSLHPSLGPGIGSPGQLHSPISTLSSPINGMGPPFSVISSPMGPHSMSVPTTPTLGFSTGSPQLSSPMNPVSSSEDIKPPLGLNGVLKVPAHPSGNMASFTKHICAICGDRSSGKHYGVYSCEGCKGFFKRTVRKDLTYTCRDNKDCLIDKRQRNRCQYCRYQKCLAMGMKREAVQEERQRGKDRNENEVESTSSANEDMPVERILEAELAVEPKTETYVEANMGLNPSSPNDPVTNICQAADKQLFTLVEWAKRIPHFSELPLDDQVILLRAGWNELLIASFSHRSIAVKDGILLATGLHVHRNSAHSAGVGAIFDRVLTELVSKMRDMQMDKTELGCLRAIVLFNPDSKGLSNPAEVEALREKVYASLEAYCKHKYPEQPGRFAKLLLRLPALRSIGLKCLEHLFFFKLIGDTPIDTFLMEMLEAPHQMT

As usually defined, the AC50 is the midpoint of the concentration-response curve, whichever way the signal moves. A higher AC50 goes with weaker potency. Consider `O=C(O)Cc1cc(I)c(Oc2ccc(O)c(I)c2)c(I)c1`, for which the AC50 result in test [1] is “active: 4.33, 2.39, 16.8, 2 µM [separate samples]”; in test [2], “active: 26.5, 4.9, 26.8, 26.6 µM [separate samples]”.
In the case of `CC1(C)NC(=O)N(c2ccc([N+](=O)[O-])c(C(F)(F)F)c2)C1=O`, the half-maximal activity concentration (AC50) result in test [3] was “active: 15.8, 26.8, 27.6, 7.06 µM [separate samples]”.
On to `C[C@]12CC[C@@H]3c4ccc(O)cc4CC[C@H]3[C@@H]1CCC2=O`, for which the half-maximal activity concentration (AC50) result in test [4] was “active: 26.4, 11.9, 6.99, 25.1 nM [separate samples]”.
For `CCCCCCCC[Si](OCC)(OCC)OCC`, the AC50 result in test [5] was “active: 124, 35.4, 70.5, 37.6 µM [separate samples]”; in test [3], “active: 9.26, 4.81, 9.15, 26.8 µM [separate samples]”.
On to `O=c1c(-c2ccc(O)cc2)coc2cc(O)cc(O)c12`, for which, in test [6], the AC50 result is “active: 22.1, 24.8, 39.2, 10.3 µM [separate samples]”.
On to `CCCCCc1ccc(N)cc1`, for which, in test [5], the AC50 result was “active: 7.34, 10.9, 15.1, 4.71 µM [separate samples]”.
On to `O=C1CCC(C2CCCCC2)CC1`, for which the AC50 entry in test [3] is “active: 8.68, 27.2, 15.9, 6.27 µM [separate samples]”.
